Test results as given in the antibiotic and cytotoxicity screens of Wong et al. (2023).
This is one part of the list.

Columns and labels:
HSkMC = human skeletal muscle cells; assay: cytotoxicity call (relative viability < 0.9); conditions: 10 µM
HepG2 = assay: cytotoxicity call (relative viability < 0.9); conditions: 10 µM
S. aureus RN4220 = assay: growth inhibition call (relative growth <= 0.2); conditions: 50 µM

| Structure (SMILES) | cytotoxicity call (HSkMC) | cytotoxicity call (HepG2) | growth inhibition call (S. aureus RN4220) |
| --- | --- | --- | --- |
| COCC(=O)NS(=O)(=O)c1ccccc1 | inactive | inactive | inactive |
| COCC#Cc1cnc2c(c1)C(=O)N([C@@H](C)CO)C[C@H](C)[C@@H](CN(C)C(=O)Nc1cc(F)ccc1F)O2 | inactive | inactive | inactive |
| Cc1ccc(S(=O)(=O)Nc2ccc3c(c2)C(=O)N([C@@H](C)CO)C[C@H](C)[C@@H](CN(C)C(=O)NC(C)C)O3)cc1 | inactive | inactive | inactive |
| C[C@@H]1CN([C@@H](C)CO)S(=O)(=O)c2ccc(C#Cc3ccc(F)cc3)cc2O[C@H]1CN(C)S(=O)(=O)c1ccc(F)cc1 | inactive | inactive | inactive |
| C[C@H]1CN([C@@H](C)CO)C(=O)c2cccc(NS(=O)(=O)c3ccc(Cl)cc3)c2O[C@H]1CN(C)C(=O)Nc1ccc(C(F)(F)F)cc1 | active | inactive | inactive |
| Cn1nccc1N | inactive | inactive | inactive |
| C[C@@H]1CCCCO[C@H](CN(C)Cc2ccc(C(F)(F)F)cc2)[C@H](C)CN([C@@H](C)CO)C(=O)c2cc(NC(=O)Cc3ccccc3)ccc2O1 | inactive | inactive | inactive |
| Nc1nc(=O)c2ncn([C@@H]3O[C@H](CO)[C@@H](O)[C@H]3O)c2[nH]1 | inactive | inactive | inactive |
| COCC(=O)N[C@@H]1C[C@H](CO)[C@H](O)C1 | inactive | inactive | inactive |
| C[C@H]1CN([C@@H](C)CO)C(=O)c2cccc(NC(=O)c3ccncc3)c2O[C@@H]1CN(C)S(=O)(=O)c1cn(C)cn1 | inactive | inactive | inactive |
| C=C1C(=O)O[C@@H]2/C=C(\CO[C@@H]3O[C@H](CO)[C@@H](O)[C@H](O)[C@H]3OC(=O)Cc3ccc(O)cc3)CC/C=C(/C=O)C[C@H](O)[C@@H]12 | inactive | inactive | inactive |
| COCC(=O)N1C[C@H](C)[C@@H](OC)CN(C)C(=O)c2ccc(NC(=O)c3ccc(F)cc3)cc2OC[C@@H]1C | inactive | inactive | inactive |
| C[C@@H]1CN([C@H](C)CO)C(=O)c2cccc(N(C)C)c2O[C@H]1CN(C)S(=O)(=O)c1ccc(Cl)cc1 | inactive | inactive | inactive |
| CC[C@@]1(O)C(=O)OCc2c1cc1n(c2=O)Cc2c-1nc1cc(F)c(C)c3c1c2[C@@H](N)CC3 | active | active | inactive |
| CN1CCN(C(=O)C[C@@H]2CC[C@@H]3[C@@H](COc4ccc(NC(=O)C5CCCCC5)cc4C(=O)N3C)O2)CC1 | inactive | inactive | inactive |
| CC(C)NC(=O)N(C)C[C@@H]1Oc2ccc(NC(=O)NC3CCCCC3)cc2CC(=O)N([C@@H](C)CO)C[C@@H]1C | inactive | inactive | inactive |
| COc1ccc([Si](C)(C)[C@@H]2[C@@H](CCn3cc([C@H](O)c4ccccc4)nn3)O[C@]3(C(=O)N(Cc4cccc(N5CCC5=O)c4)c4ccccc43)[C@H]2C)cc1 | inactive | inactive | inactive |
| O=C(C[C@H]1CC[C@@H]2[C@H](COC[C@H](O)CN2S(=O)(=O)c2cccc(F)c2)O1)NCCCN1CCOCC1 | inactive | inactive | inactive |
| COc1ccccc1NC(=O)N(C)C[C@@H]1OCc2ccccc2-c2c(n(C)c3ccccc23)C(=O)N([C@H](C)CO)C[C@@H]1C | inactive | inactive | inactive |
| C[C@@H]1CCCCO[C@H](CN(C)S(=O)(=O)c2ccc(F)cc2)[C@H](C)CN([C@H](C)CO)C(=O)c2cc(NS(=O)(=O)c3cn(C)cn3)ccc2O1 | inactive | inactive | inactive |

| Structure (SMILES) | cytotoxicity call (HSkMC) | cytotoxicity call (HepG2) | growth inhibition call (S. aureus RN4220) |
| --- | --- | --- | --- |
| C[C@@H]1CCCCO[C@H](CN(C)C(=O)CCCN(C)C)[C@H](C)CN([C@@H](C)CO)C(=O)c2cc(NC(=O)Nc3ccc(C(F)(F)F)cc3)ccc2O1 | inactive | inactive | inactive |
| CN1CCN(C(=O)C[C@H]2C=C[C@@H](NS(=O)(=O)c3cccc(F)c3)[C@@H](CO)O2)CC1 | inactive | inactive | inactive |
| CO[C@H]1O[C@H](CO)C(=O)C(=O)[C@@H]1N | inactive | inactive | inactive |
| COc1cccc(S(=O)(=O)N(C)C[C@@H]2OCc3cn(nn3)CCCC(=O)N([C@H](C)CO)C[C@H]2C)c1 | inactive | inactive | inactive |
| CCOC(=O)c1cccc([C@@H]2CC(=O)N(C(=O)OCc3ccccc3)[C@@H]2C(=O)Nc2cccc3cccnc23)c1 | inactive | inactive | inactive |
| C[C@@H]1CN([C@H](C)CO)C(=O)Cc2cc(NS(=O)(=O)c3cn(C)cn3)ccc2O[C@H]1CN(C)Cc1ccc(C(=O)O)cc1 | inactive | inactive | inactive |
| CCC(=C(CC)c1ccc(O)cc1)c1ccc(O)cc1 | inactive | active | inactive |
| C[C@@H]1CN([C@@H](C)CO)C(=O)c2cc(NC(=O)CCN3CCOCC3)ccc2O[C@@H]1CN(C)C(=O)Nc1ccccc1 | inactive | inactive | inactive |
| CCOC(=O)c1ccc(O)cc1 | inactive | inactive | inactive |
| CCCCn1c(N)c(N(CC)C(=O)Cc2ccc(S(=O)(=O)N3CCOCC3)s2)c(=O)[nH]c1=O | inactive | inactive | inactive |
| C[C@@H]1CCCCO[C@@H](CN(C)C(=O)C2CCCCC2)[C@@H](C)CN([C@H](C)CO)C(=O)c2cc(NC(=O)C3CCCCC3)ccc2O1 | inactive | inactive | inactive |
| C[C@@H]1CCCCO[C@H](CN(C)C(=O)Nc2ccccc2)[C@H](C)CN([C@H](C)CO)C(=O)c2cc(NC(=O)C3CCCCC3)ccc2O1 | inactive | inactive | inactive |
| Oc1ccc2ccccc2c1 | inactive | inactive | inactive |
| CNC(=O)c1ccc(CO)cc1 | inactive | inactive | inactive |
| COc1cc2c(cc1OC)C1C(=O)c3ccc4c(c3OC1CO2)C=CC(C)(C)O4 (centres undefined) | inactive | active | inactive |
| O=C(O)[C@H](O)c1ccccc1 | inactive | inactive | inactive |
| COc1ccc(CN(C)C[C@H]2OCCCC[C@@H](C)Oc3ccc(NC(=O)CCC(F)(F)F)cc3C(=O)N([C@H](C)CO)C[C@H]2C)cc1 | inactive | inactive | inactive |
| C[C@H](CO)N1C[C@H](C)[C@H](CN(C)C(=O)Nc2cccc(F)c2)OCc2ccccc2-c2c(n(C)c3ccccc23)C1=O | inactive | inactive | inactive |
| C[C@@H]1CCCCO[C@H](CN(C)C(=O)Cc2ccccc2)[C@H](C)CN([C@H](C)CO)C(=O)c2cc(NS(=O)(=O)c3ccc(Cl)cc3)ccc2O1 | inactive | inactive | inactive |
| COc1ccc(NC(=O)N(C)C[C@@H]2OCCCC[C@@H](C)Oc3ccc(NS(=O)(=O)c4cccs4)cc3C(=O)N([C@@H](C)CO)C[C@H]2C)cc1 | inactive | inactive | inactive |

| Structure (SMILES) | cytotoxicity call (HSkMC) | cytotoxicity call (HepG2) | growth inhibition call (S. aureus RN4220) |
| --- | --- | --- | --- |
| C[C@@H]1CCCCO[C@H](CN(C)C(=O)CCC(F)(F)F)[C@H](C)CN([C@H](C)CO)C(=O)c2cc(NS(=O)(=O)c3ccc(Cl)cc3)ccc2O1 | inactive | inactive | inactive |
| CC(C)(C)OC(=O)N1CC2(CNC(=O)O2)C1 | inactive | inactive | inactive |
| C[C@H](CO)N1C[C@H](C)[C@H](CN(C)C(=O)Nc2cccc3ccccc23)Oc2ncc(/C=C/c3ccccc3)cc2C1=O | inactive | inactive | inactive |
| CCS(=O)(=O)Nc1ccc2c(c1)C(=O)N(C)[C@@H]1CC[C@@H](CC(=O)NCc3ccc(OC)cc3)O[C@@H]1CO2 | inactive | inactive | inactive |
| C[C@@H]1CN([C@@H](C)CO)C(=O)c2cccc(NS(C)(=O)=O)c2O[C@H]1CN(C)C(=O)Nc1ccc(F)cc1 | inactive | inactive | inactive |
| CNC[C@@H]1Oc2ccc(NC(=O)Cn3cnnn3)cc2CC(=O)N([C@@H](C)CO)C[C@@H]1C | inactive | inactive | inactive |
| C[C@@H]1CN([C@@H](C)CO)C(=O)c2ccccc2-c2ccccc2CO[C@@H]1CN(C)C(=O)Nc1cccc(F)c1 | inactive | inactive | inactive |
| COC(=O)[C@H]1CCC(=O)[C@H](C(=O)OC)C1 | inactive | inactive | inactive |
| COCC#Cc1cnc2c(c1)C(=O)N([C@@H](C)CO)C[C@H](C)[C@H](CN(C)C(=O)CCN1CCCCC1)O2 | inactive | inactive | inactive |
| C=CCOC(=O)[C@@H]1[C@H]2C(=O)O[C@H](c3ccccc3)[C@H](c3ccccc3)N2[C@H](c2ccc(OCCOC(=O)[C@@H]3C[C@@H]4C(=O)N[C@@H](CC(C)C)C(=O)N4[C@@H]3c3ccc(O)cc3)cc2)[C@@]12C(=O)Nc1ccccc12 | inactive | inactive | inactive |
| CCCNC(=O)N[C@@H]1C=C[C@@H](CC(=O)N2CCN(C)CC2)O[C@H]1CO | inactive | inactive | inactive |
| O=C(C[C@@H]1CC[C@@H]2[C@H](COC[C@@H](O)CN2S(=O)(=O)c2ccccc2)O1)NCc1ccc2c(c1)OCO2 | inactive | inactive | inactive |
| COc1ccc(NC(=O)N(C)C[C@H]2OCCCC[C@@H](C)Oc3ccc(NS(=O)(=O)c4ccc(F)cc4)cc3C(=O)N([C@@H](C)CO)C[C@@H]2C)cc1 | inactive | inactive | inactive |
| C[C@@H](NC(=O)[C@@H]1CCCC[C@H]1C(=O)O)c1ccccc1.C[C@@H](NC(=O)[C@H]1CCCC[C@H]1C(=O)O)c1ccccc1 | inactive | inactive | inactive |
| Cc1nn(-c2nc3c(c(=O)n(CC(N)=O)c(=O)n3C)n2C)c(C)c1C | inactive | inactive | inactive |
| COc1cccc(NC(=O)N2C[C@@H](O)COC[C@H]3O[C@H](CC(=O)NCc4ccccc4F)CC[C@@H]32)c1 | inactive | inactive | inactive |
| O=C(C[C@@H]1CC[C@@H](NC(=O)Cc2ccccn2)[C@@H](CO)O1)NCCc1ccncc1 | inactive | inactive | inactive |
| CC(C)NC(=O)Nc1ccc2c(c1)CC(=O)N([C@H](C)CO)C[C@H](C)[C@H](CN(C)S(=O)(=O)c1cccs1)O2 | inactive | inactive | inactive |
